Experimental data reported in PubChem BioAssay AID624417 (National Center for Advancing Translational Sciences (NCATS), 2012).
Hit rate of the full screen: of about 410,000 compounds, about 6,400 (1.6%) were called active. Inconclusive results, whose numbers are uncertain, are shown with a selection of clear calls. The call rests on the fitted dose curve; in most records, active means well fitted inhibition curve with a large enough effect; inconclusive means small, poorly fitted or top-dose-only effect; inactive means no such curve, though single readings can be large or run the other way. No potency is given beside an inconclusive call; the fits are too rough.

biological target: Glucagon-like peptide 1 receptor (Homo sapiens) (UniProt P43220); assay: qHTS of GLP-1 Receptor Inverse Agonists (Inhibition Mode); conditions: HEK293 GLP-1R CRE-luciferase, luminescence, 24 h, GLP-1R form is constitutively active; activity change, negative = inhibition: at 38.3 µM (top of the series) unless noted; further: nearly all actives have a fitted effect of over 55% in size
Procedure, shortened: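 Seeding at 200 cells/uL, 12 h culture, 24 hr compound treatment, then luciferase reagent and a luminescence read; cells are HEK293 stably expressing a constitutively active GLP-1R plus cAMP-responsive luciferase.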
On the % scale 0 is the no-effect control and ±100 the full control effect; potency means the concentration at half of the fitted maximal effect; tags describe the fitted curve by direction and shape.

Sequence of UniProt P43220 (P43220 whole entry, looked up): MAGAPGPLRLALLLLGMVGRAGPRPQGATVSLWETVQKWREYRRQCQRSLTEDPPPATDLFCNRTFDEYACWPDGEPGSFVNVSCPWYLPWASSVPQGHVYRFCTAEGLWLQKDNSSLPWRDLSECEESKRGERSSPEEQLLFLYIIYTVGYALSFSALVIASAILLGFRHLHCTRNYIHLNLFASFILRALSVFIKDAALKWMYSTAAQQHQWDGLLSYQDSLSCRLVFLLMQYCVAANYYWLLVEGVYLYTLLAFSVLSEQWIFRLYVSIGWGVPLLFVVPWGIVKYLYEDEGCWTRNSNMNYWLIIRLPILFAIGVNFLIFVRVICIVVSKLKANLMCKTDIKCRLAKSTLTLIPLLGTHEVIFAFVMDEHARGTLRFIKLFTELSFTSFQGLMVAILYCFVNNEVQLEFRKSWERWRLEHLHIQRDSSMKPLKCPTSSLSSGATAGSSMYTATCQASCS

| SMILES | Potency | activity change, negative = inhibition |
| --- | --- | --- |
| N#Cc1ccc(C(=O)Nc2nnc(-c3cccs3)o2)cc1 | inconclusive [inhibitor, single point] |  |
| Cc1cc(C)c2c(N)c(C(=O)Nc3ncc(C)s3)sc2n1 | active: 1.26 µM |  |
| COc1ccc(OCC(=O)NC2CCCCCCC2)cc1 | inconclusive [inhibitor, partial curve, poor fit] |  |
| Cc1nc(-c2cccnc2)sc1C(=O)Nc1cccc(C(F)(F)F)c1 | inconclusive [inhibitor, partial curve, poor fit] |  |
| CC1=C(C(=O)Nc2ccc(C)cc2)C(c2ccc(Cl)cc2)n2nnnc2N1 (stereo not given) | inconclusive [inhibitor, partial curve, poor fit] |  |
| COc1ccc(/C=C(\NC(=O)c2ccccc2)C(=O)N2CCC(C)CC2)cc1 | inconclusive [inhibitor, single point] |  |
| Cc1onc(-c2ccccc2)c1-c1nnc(COC(=O)c2ccc(N(C)C)cc2)o1 | inconclusive [inhibitor, single point] |  |
| O=C(CN1c2ccccc2Sc2ccccc21)NNC(=O)Nc1ccc(Cl)c(Cl)c1 | inconclusive [inhibitor, partial curve, poor fit] |  |
| Cc1ccc(C(O)c2ncc(-c3ccc(Cl)cc3)[nH]2)c(C)c1 (stereo not given) | inconclusive [inhibitor, partial curve, poor fit] |  |
| CCCCN(C)CCNC(=O)CCn1nc(-c2ccc(C)cc2)ccc1=O | inconclusive [inhibitor, single point] |  |
| COc1ccc(N2CCN(C(=O)CCC(=O)N3CC(C)Oc4ccc(C)cc43)CC2)cc1 (stereo not given) | inconclusive [inhibitor, partial curve] |  |
| COc1ccc(S(=O)(=O)Nc2c(NC3CCCCC3)c3ccccc3oc2=O)cc1Cl | inconclusive [inhibitor, single point] |  |
| O=C(NCCC1=CCCCC1)c1ccc2c(c1)N(Cc1ccccc1F)C(=O)c1ccccc1S2(=O)=O | inconclusive [inhibitor, single point] |  |
| CCc1noc(C)c1C(=O)N(CC)c1nc2c(C)cccc2s1 | inconclusive [inhibitor, single point] |  |
| O=C(Nc1nnc(-c2cccnc2)o1)c1cccc(Cl)c1 |  | inactive: 12% [at 0.307 µM] |
| CN(CC(=O)Nc1cccc(F)c1)C(=O)c1ccc(-c2ccc(Cl)cc2)o1 | inconclusive [inhibitor, partial curve, poor fit] |  |
| Cc1cc2nn(-c3cccc4ccccc34)nc2cc1NC(=O)c1cccs1 | inconclusive [inhibitor, single point] |  |
| CCC(C)[C@H]1CNC(=S)N1CCC12CC3CC(CC(C3)C1)C2 (stereo not given in full) | inconclusive [inhibitor, partial curve, poor fit] |  |
| O=C(OC1CCCCC1)c1cc2ccccc2oc1=O | inactive |  |
| O=C(NC(=S)N1CCN(c2ccccc2)CC1)c1c(F)cccc1F | inconclusive [inhibitor, single point] |  |

| SMILES | Potency | activity change, negative = inhibition |
| --- | --- | --- |
| COC(=O)N[C@@H]1C[C@H]2[C@@H]3CC[C@H]4C[C@@H](OC)CC[C@]4(C)[C@H]3CC[C@@]12C | inconclusive [inhibitor, single point] |  |
| Cc1ccc(Cl)cc1N1CCN(C(=O)c2cccn2-c2nnc(N3CCCC3)s2)CC1 | inconclusive [inhibitor, single point] |  |
| C=CCC(=O)N1CCCC(CNC(=O)c2ccc(-c3ccccc3)cc2)C1 (stereo not given) | inconclusive [inhibitor, partial curve, poor fit] |  |
| O=C(/C=C/c1ccccc1)CC(=O)c1ccccc1O | inconclusive [inhibitor, single point] |  |
| CC1=CC(C)(C)N(C(=O)CCl)c2cc(C)ccc21 | inconclusive [inhibitor, single point] |  |
| COc1ccc(-c2noc(CCCC(=O)NC3CCCCC3)n2)cc1 | inconclusive [inhibitor, single point] |  |
| O=C(Nc1cccc(C(F)(F)F)c1)C1Cc2c(-c3ccccc3)ccnc2O1 (stereo not given) | inconclusive [inhibitor, partial curve, poor fit] |  |
| CCCCn1nc2cc(C(=O)N[C@H](C)C3CCCCC3)ccc2c1OCC | inconclusive [inhibitor, single point] |  |
| c1ccc(-c2csc(Nc3ccc4c(c3)OCO4)n2)cc1 | inconclusive [inhibitor, partial curve, poor fit] |  |
| COc1ccc(-c2nc(C#N)c(NCc3ccc(C)cc3)o2)cc1OC | inactive |  |
| Cc1oc(-c2cccc(F)c2)nc1CN1CCCN(C(=O)c2ccco2)CC1 | inactive |  |
| O=C(Nc1ccc(-c2nc3cccnc3s2)cc1)c1ccco1 | inconclusive [inhibitor, single point] |  |
| COc1cc(/C=N/Nc2ccc(C)cc2)cc(Br)c1O | inconclusive [inhibitor, full curve, poor fit] |  |
| COc1ccc(/C=C(\C#N)C(=O)Nc2cc(S(=O)(=O)N3CCOCC3)ccc2N2CCCC2)cc1 | inconclusive [inhibitor, partial curve, poor fit] |  |
| O=S(=O)(NC(=NCc1ccccc1)c1ccc(F)cc1)c1ccc(Cl)cc1 | active: 11.2 µM |  |
| Cc1nc2nc(-c3ccccc3)cn2nc1C | inconclusive [inhibitor, single point] |  |
| COc1cccc(C(=O)NCCSCc2c(F)cccc2Cl)c1 | inconclusive [inhibitor, single point] |  |
| Brc1ccc(OCCCOc2cccc3cccnc23)cc1 | inconclusive [inhibitor, single point] |  |
| CN=c1scc(-c2ccc(Br)cc2)n1C | inconclusive [inhibitor, partial curve] |  |
| O=C1NN=C(c2ccc(Cl)cc2)CC1c1cccc(Cl)c1 (stereo not given) | inconclusive [inhibitor, partial curve, poor fit] |  |
